These results are taken from FireProtDB (doi:10.1126/science.aai7825).

The conditions of this data set: Escherichia coli (strain K12); pH 7.5; Thermal; Intensity; HEPES 20mM; transition: 2.

With “Ribose-phosphate pyrophosphokinase wild type (sequence left out)”, the melting temperature (Tm) was 43.9 °C.
